Here are results for 5 molecules from article PMC9122603.

Sequences of proteins named here, by UniProt entry; tags and fusion partners are left off.
UniProt P05412: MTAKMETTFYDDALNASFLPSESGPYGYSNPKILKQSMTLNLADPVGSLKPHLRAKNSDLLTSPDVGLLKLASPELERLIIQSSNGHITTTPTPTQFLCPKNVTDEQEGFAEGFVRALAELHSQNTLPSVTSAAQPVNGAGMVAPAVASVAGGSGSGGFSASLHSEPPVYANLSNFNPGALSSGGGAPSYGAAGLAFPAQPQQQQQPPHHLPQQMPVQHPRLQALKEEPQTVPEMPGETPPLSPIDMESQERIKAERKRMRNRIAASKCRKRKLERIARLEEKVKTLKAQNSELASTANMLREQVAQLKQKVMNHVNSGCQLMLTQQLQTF
UniProt Q01196: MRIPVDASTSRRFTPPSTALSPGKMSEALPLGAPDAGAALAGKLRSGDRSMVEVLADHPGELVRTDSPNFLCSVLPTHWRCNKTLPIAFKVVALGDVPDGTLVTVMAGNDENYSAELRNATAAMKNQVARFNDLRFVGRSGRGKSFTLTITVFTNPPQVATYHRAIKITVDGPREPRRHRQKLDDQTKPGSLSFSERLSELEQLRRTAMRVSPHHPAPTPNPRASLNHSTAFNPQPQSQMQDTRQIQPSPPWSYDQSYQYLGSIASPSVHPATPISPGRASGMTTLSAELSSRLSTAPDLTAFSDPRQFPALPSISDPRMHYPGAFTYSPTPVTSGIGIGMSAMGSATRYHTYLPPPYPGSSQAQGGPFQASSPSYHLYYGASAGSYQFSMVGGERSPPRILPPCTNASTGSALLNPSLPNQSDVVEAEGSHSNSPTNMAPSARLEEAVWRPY
UniProt P40763: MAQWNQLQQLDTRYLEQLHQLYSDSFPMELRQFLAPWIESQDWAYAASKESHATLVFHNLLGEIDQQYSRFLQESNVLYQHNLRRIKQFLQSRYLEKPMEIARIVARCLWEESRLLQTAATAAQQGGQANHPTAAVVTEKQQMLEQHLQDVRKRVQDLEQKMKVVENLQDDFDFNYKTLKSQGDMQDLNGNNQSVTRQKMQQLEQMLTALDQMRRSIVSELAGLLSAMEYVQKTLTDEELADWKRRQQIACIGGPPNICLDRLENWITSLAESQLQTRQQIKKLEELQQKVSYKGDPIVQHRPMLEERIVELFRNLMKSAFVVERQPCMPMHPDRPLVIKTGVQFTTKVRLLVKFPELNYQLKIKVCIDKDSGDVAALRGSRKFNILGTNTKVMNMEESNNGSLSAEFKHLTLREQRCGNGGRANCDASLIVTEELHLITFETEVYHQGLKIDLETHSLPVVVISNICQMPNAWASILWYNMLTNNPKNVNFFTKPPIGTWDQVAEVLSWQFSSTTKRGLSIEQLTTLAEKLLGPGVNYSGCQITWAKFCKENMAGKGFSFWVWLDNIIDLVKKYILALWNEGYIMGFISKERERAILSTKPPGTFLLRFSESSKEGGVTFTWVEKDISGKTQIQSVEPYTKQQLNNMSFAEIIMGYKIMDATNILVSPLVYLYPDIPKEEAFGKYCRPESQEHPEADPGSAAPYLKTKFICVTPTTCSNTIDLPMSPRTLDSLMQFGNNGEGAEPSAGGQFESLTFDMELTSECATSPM

Results are given in words; binding and its absence hold for the method and conditions named. In cells and extracts the contact can be indirect. Some results given as binding are weak or reduced against the parent protein; the word gives no strength.

The chains are these.
B1: IRF4 (protein, UniProt Q15306 1-451)
chain: MNLEGGGRGGEFGMSAVSCGNGKLRQWLIDQIDSGKYPGLVWENEEKSIFRIPWKHAGKQDYNREEDAALFKAWALFKGKFREGIDKPDPPTWKTRLRCALNKSNDFEELVERSQLDISDPYKVYRIVPEGAKKGAKQLTLEDPQMSMSHPYTMTTPYPSLPAQQVHNYMMPPLDRSWRDYVPDQPHPEIPYQCPMTFGPRGHHWQGPACENGCQVTGTFYACAPPESQAPGVPTEPSIRSAEALAFSDCRLHICLYYREILVKELTTSSPEGCRISHGHTYDASNLDQVLFPYPEDNGQRKNIEKLLSHLERGVVLWMAPDGLYAKRLCQSRIYWDGPLALCNDRPNKLERDQTCKLFDTQQFLSELQAFAHHGRSLPRFQVTLCFGEEFPDPQRQRKLITAHVEPLLARQLYYFAQQNSGHFLRGYDLPEHISNPEDYHRSIRHSSIQE
B2: JUNB (protein, UniProt P17275 1-347)
chain: MCTKMEQPFYHDDSYTATGYGRAPGGLSLHDYKLLKPSLAVNLADPYRSLKAPGARGPGPEGGGGGSYFSGQGSDTGASLKLASSELERLIVPNSNGVITTTPTPPGQYFYPRGGGSGGGAGGAGGGVTEEQEGFADGFVKALDDLHKMNHVTPPNVSLGATGGPPAGPGGVYAGPEPPPVYTNLSSYSPASASSGGAGAAVGTGSSYPTTTISYLPHAPPFAGGHPAQLGLGRGASTFKEEPQTVPEARSRDATPPVSPINMEDQERIKVERKRLRNRLAATKCRKRKLERIARLEDKVKTLKAENAGLSSTAGLLREQVAQLKQKVMTHVSNGCQLLLGVKGHAF

For this assay, the target named is T1, BATF (human (endogenous in Th17 cells from cord blood CD4+ T-cells)) (UniProt Q16520).
T1 sequence: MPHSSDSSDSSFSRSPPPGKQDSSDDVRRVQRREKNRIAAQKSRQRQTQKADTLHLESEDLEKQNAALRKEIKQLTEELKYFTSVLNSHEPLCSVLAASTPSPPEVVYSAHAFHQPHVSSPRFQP
As to the kind of experiment: co-IP; endogenous BATF immunoprecipitated from 72 h-polarized human Th17 cultures; partners detected by immunoblot; three biological replicates. A general note: A western blot detects proteins with antibodies after separation by electrophoresis.
In the case of JUN (from UniProt P05412 1-331), the binding result was “binds”.
With RUNX1 (from UniProt Q01196 1-453) the entry was “binds”; with STAT3 (from UniProt P40763 1-770), “no binding”; with B1, “no binding”.
Consider B2, for which the binding result is on record as “binds”.
